Source: the supplement of paper PMC10369915
The list shows a part of the results. No stated cut-off is given here; in the data, active = 3.2 or more and inactive = the rest. The signal is at background level for most entries.

B1: SERPINB1_Y84 (peptide)
chain: KRGASYILKLA
B2: SERPINB1_Y84_A82V (peptide)
chain: KRGVSYILKLA
B3: SERPING1_Y294 (peptide)
chain: LLNAIYLSAKW
B4: SERPING1_Y294_W299R (peptide)
chain: LLNAIYLSAKR
B5: SESN2_Y323 (peptide)
chain: DPTFGYEDFTR
B6: SET_Y119_H118Y (peptide)
chain: EEALYYLTRVE
B7: SETD2_Y770_V768L (peptide)
chain: VMTLDYSKTVV
B8: SETX_Y1297 (peptide)
chain: GPRKAYELSQR
B9: SETX_Y1297_R1294C (peptide)
chain: GPCKAYELSQR
B10: SETX_Y1978_L1976R (peptide)
chain: IVGRLYRLLTE
B11: SF3B1_Y570 (peptide)
chain: DLVRPYVHKIL
B12: SF3B1_Y570_R568H (peptide)
chain: DLVHPYVHKIL
B13: SFI1_Y164_Q167H (peptide)
chain: QTWKTYVRHQQ
B14: SGCE_Y38 (peptide)
chain: FLLTVYSIFSK
B15: SGCE_Y38_T36R (peptide)
chain: FLLRVYSIFSK
B16: SGMS2_Y24_T21M (peptide)
chain: DPMNTYARPAE
B17: SGMS2_Y59_I62S_YF (peptide)
chain: KKFPDYIQSAM
B18: SGMS2_Y59_YF (peptide)
chain: KKFPDYIQIAM

molecular target: SHP2 C-SH2 domain E139D; experiment: enrichment score (SH2-bound / input frequency) (ratio); bacterial display of known human phosphotyrosine sites (pTyr-Var adds point mutants) read by sequencing; higher = stronger binding; tyrosines were phosphorylated by kinases first; settings: peptide library: pTyr-Var
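Further: displayed peptides selected on beads carrying the immobilized SH2 domain, with library peptides lacking any tyrosine serving as negative controls.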

Enrichment score, inactive:
B1 2.77
B2 1.34
B3 1.37
B4 1.92
B5 1.01
B6 1.2
B7 1.06
B8 0.548
B9 0.768
B10 1.34
B11 1.05
B12 1.46
B13 1.1
B14 2.47
B15 2.21
B16 0.755
B17 1.03
B18 1.29

molecular target: SHP2 C-SH2 domain wild-type; experiment: as above; settings: peptide library: pTyr-Var

Enrichment score, inactive:
B1 2.16
B2 1.24
B3 1.7
B4 1.8
B5 0.914
B6 1.09
B7 1.05
B8 0.6
B9 1.08
B10 1.06
B11 1.12
B12 1.37
B13 1.17
B14 2.16
B15 1.85
B16 0.553
B17 0.847
B18 1.03

molecular target: SHP2 N-SH2 domain L43F; experiment: as above; settings: peptide library: pTyr-Var

Enrichment score, inactive:
B1 2.34
B2 1.03
B3 1.06
B4 1.86
B5 0.75
B6 1.32
B7 1.2
B8 0.554
B9 1.04
B10 1.16
B11 1.29
B12 1.08
B13 1.13
B14 2.18
B15 1.8
B16 0.558
B17 0.963
B18 1.12

molecular target: SHP2 N-SH2 domain T42A; experiment: as above; settings: peptide library: pTyr-Var

Enrichment score, inactive:
B1 1.85
B2 0.962
B3 1.13
B4 1.59
B5 0.756
B6 0.976
B7 0.824
B8 0.564
B9 0.696
B10 1.1
B11 1.31
B12 1.28
B13 1.2
B14 2.07
B15 1.6
B16 0.574
B17 0.98
B18 0.967

molecular target: SHP2 N-SH2 domain T52S; experiment: as above; settings: peptide library: pTyr-Var

Enrichment score, inactive:
B1 2.29
B2 1.1
B3 1.18
B4 2.06
B5 0.767
B6 1.08
B7 1.07
B8 0.659
B9 0.862
B10 1.2
B11 1.15
B12 1.07
B13 1.78
B14 2.05
B15 2.24
B16 0.496
B17 0.845
B18 1.42

molecular target: SHP2 N-SH2 domain wild-type; experiment: as above; settings: peptide library: pTyr-Var

Enrichment score, inactive:
B1 2.18
B2 1
B3 1.63
B4 1.44
B5 0.927
B6 0.974
B7 1.02
B8 0.671
B9 0.848
B10 0.926
B11 0.979
B12 1.45
B13 1.16
B14 2.07
B15 1.78
B16 0.597
B17 1.03
B18 1.01
